From PubChem BioAssay AID652106 (National Center for Advancing Translational Sciences (NCATS), 2013)
Screen size: about 370,000 compounds; about 500 (0.14%) were called active. Inconclusive results, whose numbers are uncertain, are shown with a selection of clear calls. Calls come from the whole dose curve; as a rule, active = well fitted activation curve with a large enough effect; inconclusive = small, poorly fitted or top-dose-only effect; inactive = no such curve, though single readings can be large or run the other way. A potency beside an inconclusive call is a rough fit, not a confirmed value.

Test: qHTS of alpha-syn Inhibitors; note: nearly all actives have a fitted effect of over 65% in size; for growth rescue (activation): % of control where 0% means no effect
Settings: Yeast expressing alpha-synuclein, BacTiter-Glo, 24 h; Potency: growth rescue unless noted; growth rescue (activation): at 46.1 µM (top of the series) unless noted
Procedure, shortened: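 Galactose-induced alpha-syn yeast (OD600=0.02, raffinose-pregrown) + pinned cpd, 24 hr, 30 deg C; growth by BacTiter-Glo luminescence. Growth restoration scores as activation.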
Potency is the fitted concentration of half-maximal effect; tags give direction and shape of the fitted curve.

Potency, inconclusive:
O=S(=O)(Nc1ccc(Br)cc1)c1cccc2nonc12 20 µM [activator, single point], O=C(Cn1cc(/C=N/NC(=O)c2ccccc2Br)c2ccccc21)Nc1ccc(F)cc1 35.5 µM [activator, single point], O=C(Nc1ccc2c(c1)CCO2)Nc1nnc([C@H]2C[C@H](O)[C@@H](CO)O2)s1 35.5 µM [activator, single point], COc1ccc(OC)c(/C=N/NC(=O)C(=O)N2CCCC2)c1 6.31 µM [activator, single point], CCCc1cc(NC(=O)CCl)n(-c2ccccc2)n1 35.5 µM [activator, single point], Cc1ccc(-c2nc(CS(=O)(=O)CC(=O)NCc3cccc(F)c3)c(C)o2)cc1 5.62 µM [activator, single point], C#CCNC(=O)C[C@@H]1C[C@@]2(C(=O)OCC)CCCC=C2N(CCCCCCCC)C1=O 35.5 µM [activator, single point], Cc1ccc2ccc3cc(C(=O)N4CCN(c5ccccc5)CC4)nc3c2[nH]1 22.4 µM [activator, single point], COc1ccc(-c2cc(C(F)(F)F)n3nc(C(=O)NCC45CC6CC(CC(C6)C4)C5)cc3n2)cc1OC 35.5 µM [activator, single point], CCCN(C(=O)CCNC(=O)Cn1cnc2ccccc2c1=O)c1cccc(Cl)c1 5.62 µM [activator, single point], CC1(C)CC(=O)C(/C=N/c2ccccn2)=C(O)C1 12.6 µM [activator, partial curve], O=C(NCc1ccccc1)c1cc(C2CCCCN2C(=O)c2ccc3c(c2)CCO3)on1 (configuration not stated) 5.62 µM [activator, single point], CC(C)C[C@@H](COCc1ccc(Cl)cc1)N1CCN(C(=O)c2ccc(C(F)(F)F)cc2)CCC1=O 28.2 µM [activator, single point], COc1ccc(CSCC(=O)Nc2ccccc2)cc1[N+](=O)[O-] 3.16 µM [activator, full curve, poor fit], CCCc1nc2ccc(Br)cn2c1Cc1ccccc1 35.5 µM [activator, single point], O=C(NC1CCCC1)C1C(c2ccccc2)=Nc2ccccc2N1C(=O)c1ccc(C(F)(F)F)cc1 (configuration not stated) 6.31 µM [activator, single point], CC1=CC(C)(C)Nc2ccc(OC(=O)CN3C(=O)c4ccccc4C3=O)cc21 11.2 µM [activator, partial curve], Cc1ccc(C(=O)NCCc2csc(-c3cccnc3)n2)cc1 6.31 µM [activator, single point], CCCCCCN1C[C@H](n2cc(-c3ccc(F)cc3)nn2)[C@@H](O)C[C@@H]1c1ccccc1 31.6 µM [activator, single point], Cc1ccc(-n2nc(C)c3c(C)c(CCC(=O)O)c(C)nc32)cc1 2.82 µM [activator, full curve, poor fit], O=C(COc1cccc(F)c1)Nc1nc(-c2ccccn2)cs1 2.82 µM [activator, partial curve, poor fit], Cc1c(C(=O)NCCCN2CCOCC2)oc2ccc(S(=O)(=O)N3CCOCC3)cc12 20 µM [activator, single point], COc1ccc(C2CC(c3ccc(Br)cc3)=NN2C(=O)c2cccnc2)cc1 (configuration not stated) 15.8 µM [activator, partial curve, poor fit], Cc1oc(-c2ccccc2)cc1C(=O)NC(Cc1c[nH]c2ccccc12)C(=O)O (configuration not stated) 35.5 µM [activator, single point], CCOC(=O)c1[nH]c2cc3c(cc2c1NC(=O)CN1CCC2(CC1)OCCO2)OCO3 3.16 µM [activator, single point], Cc1nc2scc(C)n2c(=O)c1S(=O)(=O)Nc1ccc(N2CCOCC2)cc1 5.62 µM [activator, single point], COc1ccc2c(c1)oc(=O)c1ccccc12 22.4 µM [activator, single point], COc1ccc(C(=O)OCN2C(=O)c3ccccc3C2=O)cc1 35.5 µM [activator, single point], CCCCCCCCN1C(=O)[C@H](CC(=O)N2CCCCC2)C[C@@]2(C(=O)OC)CCCCC=C12 28.2 µM [activator, single point], Cc1ccccc1-c1nc(CS(=O)(=O)CC(=O)NCCCN2CCCC2=O)c(C)o1 31.6 µM [activator, single point], CCCCN(C(=O)CC1CCCCC1)c1c(N)n(CCCC)c(=O)[nH]c1=O 31.6 µM [activator, single point], COc1ccc2[nH]c(C(=O)N3CCC(CO)(Cc4cccc(C(F)(F)F)c4)CC3)c(C)c2c1 25.1 µM [activator, single point], Cc1cc(Cl)ccc1OC(C)C(=O)N1CCCN(C(=O)C(C)Oc2ccc(Cl)cc2C)CC1 (configuration not stated) 28.2 µM [activator, single point], COc1ccc(C(=O)OCC(=O)NC(C)(C)C)cc1[N+](=O)[O-] 5.62 µM [activator, single point], Cc1ccc(-c2nc3ccc(Cl)cn3c2Cc2cccc(F)c2)cc1 15.8 µM [activator, single point], COc1ccccc1NC(=O)N(C)C[C@H]1Oc2ncc(C#CCN(C)C)cc2C(=O)N([C@H](C)CO)C[C@H]1C 35.5 µM [activator, single point], CCC(C)OC(=O)c1[nH]c2c(c1C)C(=O)CC(c1ccc(N(C)C)cc1)C2 (configuration not stated) 17.8 µM [activator, single point], COCc1nnc(NC(=O)c2ccc(S(=O)(=O)N3CCCc4ccccc43)cc2)o1 31.6 µM [activator, single point], C[C@H](Cc1ccc(O)c(O)c1)[C@@H](C)Cc1ccc(O)c(O)c1 29.1 µM [activator, single point], O=C(/C=C1\NC2(CCCC2)Cc2ccccc21)C(=O)N/N=C/c1ccccc1O 14.1 µM [activator, single point], O=C1NN(c2ccccc2)C(=O)/C1=C\c1ccccc1OCC(=O)N1CCOCC1 5.62 µM [activator, single point], O=C(c1ccc(C(F)(F)F)cc1)N1CCC(=O)N([C@H](COCc2ccc(Cl)cc2)Cc2ccccc2)CC1 35.5 µM [activator, single point], Nc1nnc(SCC(=O)OCC(=O)NC2CCCCC2)s1 5.62 µM [activator, single point]

Potency, inactive:
Cn1c(=O)c(Cc2ccccc2)c(O)c2ccccc21, CC1(C)Cc2c(c(N3CCOCC3)nc3sc(C#N)c(N)c23)CS1, CCc1ccc(CCC(=O)N2CCN(S(=O)(=O)c3ccc(Br)cc3)CC2)cc1, CCOc1ccccc1NC(=O)Cc1coc2cc(C)ccc12, Cc1ccc(C)c(NC(=O)CN(C)C(=O)c2cc3c(s2)CCCCC3)c1, CC(=O)Oc1ccc(-c2nc3cc(Cl)ccc3c(=O)o2)cc1, CCOC(=O)N1CCN(CC(O)COCc2ccc(Cl)cc2)CC1 (configuration not stated), CC(C)[C@H]1COCCS(=O)(=O)N1Cc1cccc(Cl)c1, CSc1sc(C)cc1C=O, COc1ccc(/C=C/C(=O)c2ccc3c(c2)OCO3)c(OC)c1, COc1ccc(NC(=S)N(CCc2c(C)[nH]c3ccc(C)cc23)Cc2ccco2)cc1, COc1cc2c(cc1OC)C(COc1ccc([N+](=O)[O-])cc1)N(C(C)=O)CC2 (configuration not stated), CCN(CC)S(=O)(=O)c1ccc(C)c(NC(=O)COC(=O)C=C(C)C)c1, COc1cccc(NC(=O)CN(c2cccc(C(F)(F)F)c2)S(C)(=O)=O)c1, COc1ccc(C(C)=O)cc1COC(=O)c1ccc(C)c(S(=O)(=O)N2CCOCC2)c1, Cc1csc(SCC(=O)Nc2nc(-c3ccccc3)cs2)n1, O=C(CN(c1ccccc1)S(=O)(=O)c1ccccc1[N+](=O)[O-])Nc1ccccc1C(=O)N1CCOCC1, O=C(Nc1nc(-c2cc3ccccc3o2)cs1)c1ccc(S(=O)(=O)N2CCCC2)cc1, S=c1[nH]nc(Cn2c(-c3ccccn3)nc3ccccc32)n1-c1ccc2c(c1)OCCO2

Potency, active:
CCOC(=O)c1ccc(CNc2ncnc3nc[nH]c23)cc1 25.1 µM, COc1ccc(C(=O)CSc2nc3ccccc3n2CC(=O)NC(C)(C)C)cc1 14.1 µM, O=C(N/N=C/c1cccc2cccnc12)c1ccccc1O 22.4 µM

Growth rescue (activation), inconclusive:
Oc1c(C(Nc2nccs2)c2ccc(C(F)(F)F)cc2)ccc2cccnc12 (configuration not stated) -47.1% [activator], O=C(c1ccccc1F)N1CCC2CC1c1cc(-c3ccc4c(c3)OCO4)ccc12 (configuration not stated) 85.7% [activator]
